Among all 43,000 compounds or so, about 200 (0.47%) were called active. The inconclusive results got no clear call from the source; some entries with a clear call stand among them for comparison. Calls come from the whole dose curve; as a rule, active = well fitted cell-killing curve with a large enough effect; inconclusive = small, poorly fitted or top-dose-only effect, or effect the other way; inactive = flat fitted curve, though single readings scatter. Potencies of inconclusive entries are doubtful fits and often do not repeat.
assay: Cell viability qHTS assay in S16 Pmp22-F2sN cells; conditions: S16 Pmp22-F2sN Schwann cells (luciferase reporters placed in the Pmp22 gene) viability, CellTiter-Glo, 24 h; activity change, negative = cytotoxicity: at 57.5 µM (top of the series); note: nearly all actives have a fitted effect of over 65% in size
Outline: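 Seed 500-1,000 S16 Pmp22-F2sN cells per well in phenol-red-free DMEM with 10% heat-inactivated FBS; pin-add 23 nL compound; incubate 24 h at 37C; add CellTiter-Glo, wait 15 min protected from light; read luminescence.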
% is set by controls: 0 for no effect and ±100 for the full control effect; potency is the fitted concentration of half-maximal effect; tags give direction and shape of the fitted curve.

Compound | Potency | activity change, negative = cytotoxicity
Cc1ccc(CNc2ccc3cc(S(=O)(=O)N4CCCCC4)ccc3n2)cc1 | inconclusive: 39.8 µM [cytotoxic, single point] | –
Cc1nn(-c2ccccc2)c2c1N(CC(=O)N1CCN(c3ccccc3F)CC1)C(=O)CS2 | inconclusive: 7.94 µM [cytotoxic, partial curve] | –
Cc1ccc(S(=O)(=O)c2nc(-c3ccc(F)cc3)oc2N2CCN(c3ccccc3)CC2)cc1 | – | inactive: 4.32%
Nc1nn(-c2ccccc2)nc1C(=O)OCc1c(F)cccc1Cl | inconclusive: 22.4 µM [rising, partial curve, poor fit] | –
O=C(Nc1ccc2nc3n(c(=O)c2c1)CCCCC3)c1cccc(C(F)(F)F)c1 | inconclusive: 28.2 µM [cytotoxic, single point] | –
O=C(Nc1ccc(Cl)cc1)C1CCN(c2nc3ccccc3nc2C(F)(F)F)CC1 | inconclusive: 15.8 µM [rising, partial curve, poor fit] | –
Cc1cc(C)cc(NC(=O)N2CCC(N3CCCCC3)CC2)c1 | – | inactive: 19.5%
Cc1ccc(O)c(C(CC(=O)NCC2(c3ccccc3)CCCC2)c2ccccc2)c1 (centres undefined) | inconclusive: 39.8 µM [cytotoxic, single point] | –
CCN(CC)c1nn2c(=O)c(C(=O)NCCc3ccccc3)cnc2s1 | inconclusive: 17.8 µM [rising, partial curve, poor fit] | –
CCOc1ccc(S(=O)(=O)NCC(c2ccco2)S(=O)(=O)c2cccs2)cc1 (centres undefined) | inconclusive: 28.2 µM [cytotoxic, single point] | –
O=C(NCc1ccc(Cl)cc1)c1cc(S(=O)(=O)N2CCCCC2)c[nH]1 | inconclusive: 39.8 µM [cytotoxic, single point] | –
COc1ccccc1CNC(=O)CCn1c(=O)c2ccccc2n(CC(=O)Nc2cccc(Cl)c2)c1=O | inconclusive: 25.1 µM [cytotoxic, single point] | –
CCOC(=O)c1cc(-c2ccccc2)n(-c2cccc(C(=O)Nc3ccc(F)c(F)c3)c2)c1C | inconclusive: 25.1 µM [cytotoxic, single point] | –
Cc1ccnc(NC(c2ccccc2F)c2ccc3cccnc3c2O)c1 (centres undefined) | inconclusive: 25.1 µM [cytotoxic, single point] | –
Cc1ccc(OCCSc2nc3ccccc3n2CC(=O)N2CCOCC2)c(C)c1 | inconclusive: 39.8 µM [cytotoxic, single point] | –
CCC(=O)N1CCc2cc(Br)cc(S(=O)(=O)N3CCC(C(=O)NC(C)(C)C)CC3)c21 | – | inactive: 16.7%
COc1ccc(CNC(=O)CCCn2c(SCC(N)=O)nc3cc4c(cc3c2=O)OCO4)cc1 | inconclusive: 5.62 µM [rising, single point] | –
Cc1cc(C)c(NC(=O)Cn2c(=O)n(CCCCC(=O)NCc3ccccc3Cl)c(=O)c3ccccc32)c(C)c1 | inconclusive: 0.0708 µM [cytotoxic, full curve, poor fit] | –
COc1ccc(CNC(=O)c2cnn3c(C)c(Cc4ccc(F)cc4)c(C)nc23)cc1 | inconclusive: 25.1 µM [cytotoxic, single point] | –
CCOc1cc(CNc2ccc(O)cc2)cc(Br)c1OCc1ccccc1 | inconclusive: 39.8 µM [cytotoxic, single point] | –

Compound | Potency | activity change, negative = cytotoxicity
COCCNC(=O)c1ccc(Cn2c(SCC(=O)NC(C)C)nc3ccccc3c2=O)cc1 | inconclusive: 0.631 µM [rising, full curve, poor fit] | –
Cc1cccc(-c2nc3c(C#N)c[nH]n3c2NC2CCCCC2)c1 | inconclusive: 39.8 µM [cytotoxic, single point] | –
Cc1ccc(-c2noc(CN(C3CCCCC3)S(=O)(=O)c3ccc(C)cc3)n2)cc1 | inconclusive: 39.8 µM [cytotoxic, single point] | –
COc1ccc(Br)cc1CNC(=O)CCCn1c(=O)c2cccn2c2ccccc21 | inconclusive: 39.8 µM [cytotoxic, single point] | –
CCOC(=O)c1[nH]c2ccccc2c1NC(=O)c1cc(Cl)ccc1Cl | – | inactive: -2.39%
CCCS(=O)(=O)c1c(S(=O)(=O)CCC)c2cc(C(C)(C)C)ccn2c1C(=O)c1ccc(OC)c(OC)c1 | – | inactive: -2.38%
COc1ccc(C2C=C(c3ccc(C)cc3)Nc3c(C(=O)Nc4ccccc4)cnn32)cc1 (centres undefined) | inconclusive: 39.8 µM [cytotoxic, single point] | –
COCCCn1c(SCc2ccccc2F)nc2c(sc3ccccc32)c1=O | – | inactive: 17%
O=C(Cn1ncc2c3ccccc3n(Cc3ccccc3)c2c1=O)N1CCCCCC1 | inconclusive: 31.6 µM [rising, single point] | –
CCN(c1cccc(C)c1)C(CNS(=O)(=O)c1ccccc1)c1ccccc1 (centres undefined) | inconclusive: 12.6 µM [cytotoxic, partial curve] | –
Cc1cccc(-c2cc(NC(=O)c3ccccc3C)n(-c3ccccc3)n2)c1 | inconclusive: 0.224 µM [cytotoxic, full curve, poor fit] | –
O=C(CSc1c2c(nc3ccc(Cl)cc13)CCCC2)N1CCCCC1 | inconclusive: 22.4 µM [cytotoxic, single point] | –
CCOCCCn1c(=N)c(S(=O)(=O)c2ccccc2)cc2c(=O)n3cc(C)ccc3nc21 | inconclusive: 5.62 µM [rising, full curve, poor fit] | –
CC(=O)c1cccc(NC(=O)c2ccc3c(c2)CCN3S(=O)(=O)c2ccccc2)c1 | inconclusive: 25.1 µM [cytotoxic, single point] | –
CCn1cc(S(=O)(=O)c2ccccc2)c(=O)c2cc(F)c(N3CCCCCC3)cc21 | inconclusive: 10 µM [cytotoxic, partial curve, poor fit] | –
COc1ccc(-c2nc3c(C#N)c[nH]n3c2NC2CCCCC2)cc1 | inconclusive: 22.4 µM [cytotoxic, single point] | –
COc1ccc(-c2onc(C)c2C)cc1S(=O)(=O)NC1CCCCC1 | inconclusive: 31.6 µM [cytotoxic, single point] | –
CCc1ccc(CNC(=O)c2ccc3c(c2)c(C)c(C)n3Cc2ccccc2)cc1 | – | inactive: -5.55%
O=C(NC1CCCCC1)c1ccc(CSc2nc3ccncc3n2Cc2cccc(F)c2)cc1 | inconclusive: 31.6 µM [cytotoxic, single point] | –
